Results taken from the BET-seq Pho4 binding data (Le et al. 2018).
Some of the results follow. Values were computed here from the reads of four pooled replicates and scatter widely.

Target: T1, Pho4 (S. cerevisiae) (UniProt P07270)
T1 sequence: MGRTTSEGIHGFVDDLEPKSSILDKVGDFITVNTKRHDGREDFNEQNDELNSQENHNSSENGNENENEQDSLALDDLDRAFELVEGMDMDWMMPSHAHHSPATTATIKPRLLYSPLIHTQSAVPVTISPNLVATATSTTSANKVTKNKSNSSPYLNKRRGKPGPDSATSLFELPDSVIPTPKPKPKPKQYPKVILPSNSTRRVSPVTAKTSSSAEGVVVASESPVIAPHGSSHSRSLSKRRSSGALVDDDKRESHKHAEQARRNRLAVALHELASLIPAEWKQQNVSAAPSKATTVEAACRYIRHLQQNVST
Assay: relative binding free energy (BET-seq); higher = weaker binding
Settings: reference: library average

Row | Sequence | relative binding free energy [kcal/mol]
1 | GAGGGCACGTGGTATG | -0.16
2 | CTAAGCACGTGGTGTT | -0.19
3 | TTAATCACGTGCGTCG | 0.18
4 | TTTTACACGTGTAGTC | 0.05
5 | ATTCACACGTGGGTGT | -0.09
6 | GAGGGCACGTGTCTGG | -0.07
7 | ATTTGCACGTGCGGTG | -0.02
8 | GCTTGCACGTGGTATG | -0.06
9 | AGTTTCACGTGAAGTA | 0.4
10 | TTCTACACGTGTGCTG | 0.13
11 | CATTGCACGTGAAGTT | 0.15
12 | CGGATCACGTGCGGTG | 0.16
13 | TGGTGCACGTGCCGGT | -0.13
14 | AGTAGCACGTGGGTTG | -0.29
15 | ATTAGCACGTGTGTCA | -0.01
16 | AGGAACACGTGTGGTT | 0.19
17 | GGAGGCACGTGAAGGA | 0.28
18 | ATGGCCACGTGGATGT | 0.08
19 | CTATTCACGTGGGTTA | -0.11
20 | ATTGCCACGTGTGCTT | -0.03
21 | TAATACACGTGAGTTG | 0.3

Row | Sequence | relative binding free energy [kcal/mol]
22 | GCATGCACGTGGAGGG | 0.04
23 | GTTTCCACGTGAGTGG | 0.19
24 | CGTTACACGTGAGAGT | 0.25
25 | CGGTTCACGTGTTTCA | 0.32
26 | CTTGACACGTGTGATG | 0.04
27 | GAGGGCACGTGGGACA | -0.18
28 | CGGTACACGTGCGTGG | 0.08
29 | CTAGGCACGTGTGATG | -0.04
30 | TAATGCACGTGGGACG | -0.13
31 | TTTCTCACGTGATGAG | 0.27
32 | GTTCGCACGTGGGGCA | -0.18
33 | AGAAGCACGTGAAAGG | 0.34
34 | ACTTTCACGTGTGTTG | 0.2
35 | AAGTTCACGTGGGAAG | 0.02
36 | GTGGACACGTGTGAGC | 0.01
37 | TTGCGCACGTGACGGG | -0.04
38 | CAGTTCACGTGAAGTG | 0.47
39 | AAGTGCACGTGGTGAA | -0.28
40 | ATTGCCACGTGGAGTG | -0.17
41 | TTGGACACGTGCAAGT | 0.23
42 | TTGGGCACGTGGGGGA | -0.14

Row | Sequence | relative binding free energy [kcal/mol]
43 | AATGGCACGTGGCGTT | -0.2
44 | GTGATCACGTGTTCGT | 0.1
45 | AGCTGCACGTGGTCGG | -0.15
46 | GATTTCACGTGCTTGA | 0.33
47 | TCGGGCACGTGGGATA | -0.05
48 | TATGTCACGTGCGTTG | 0.06
49 | CTTGACACGTGTTTTT | -0.08
50 | AGGTGCACGTGTGTGA | 0.03
51 | AGAGTCACGTGGTGAA | 0.15
52 | AGCATCACGTGGTGAG | 0.19
53 | TGTTTCACGTGCCTTT | 0.17
54 | GGTTTCACGTGGAACG | 0.26
55 | TTTTACACGTGCAGGG | -0.01
56 | GCTTTCACGTGAAGGG | 0.55
57 | GTGCGCACGTGCGTTT | -0.16
58 | GGGTTCACGTGCTGAT | 0.42
59 | GTATACACGTGTGTAA | 0.1
60 | TTTTTCACGTGGAGTC | 0.15
61 | AGGGTCACGTGTAAAT | 0.24
62 | TGAGGCACGTGTTAGT | -0.12
63 | TATTTCACGTGACGAT | 0.33
